The supplement of paper PMC8728848
This is one part of the list.

Experiments:
Assay in all cases: glycan array binding signal (z-score within array); higher = stronger binding
Conditions in all cases: glycan notation: IUPAC condensed, linker removed
[1] = molecular target: Neu5Ac(a2-6)Gal(b1-4)GlcNAc(b1-2)Man(a1-3)[Man(a1-6)]Man(b1-4)GlcNAc(b1-4)GlcNAc
Procedure, shortened: (§1)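 The binding signal is a Z-score computed within each array. Data were drawn from 3228 arrays in the Consortium for Functional Glycomics database, restricted to those with a known protein sequence. Scores were averaged over arrays of the same protein sequence at different concentrations or buffers, and over linkers, and negative values can be taken as non-binding.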

[2] = molecular target: Neu5Ac(a2-6)Gal(b1-4)GlcNAc(b1-2)Man(a1-3)[Neu5Ac(a2-3)Gal(b1-4)GlcNAc(b1-2)Man(a1-6)]Man(b1-4)GlcNAc(b1-4)GlcNAc
Procedure, shortened: as §1

[3] = molecular target: Neu5Ac(a2-6)Gal(b1-4)GlcNAc(b1-2)Man(a1-3)[Neu5Ac(a2-6)Gal(b1-4)GlcNAc(b1-2)Man(a1-6)]Man(b1-4)GlcNAc(b1-4)GlcNAc
Procedure, shortened: as §1

[4] = molecular target: Neu5Ac(a2-6)Gal(b1-4)GlcNAc(b1-2)Man(a1-3)[Neu5Ac(a2-6)Gal(b1-4)GlcNAc(b1-2)Man(a1-6)]Man(b1-4)GlcNAc(b1-4)[Fuc(a1-6)]GlcNAc
Procedure, shortened: as §1

[5] = molecular target: Neu5Ac(a2-6)Gal(b1-4)GlcNAc(b1-2)Man(a1-6)Man(b1-4)GlcNAc(b1-4)GlcNAc
Procedure, shortened: as §1

[6] = molecular target: Neu5Ac(a2-6)Gal(b1-4)GlcNAc(b1-2)Man(a1-6)[Gal(b1-4)GlcNAc(b1-2)Man(a1-3)]Man(b1-4)GlcNAc(b1-4)GlcNAc
Procedure, shortened: as §1

[7] = molecular target: Neu5Ac(a2-6)Gal(b1-4)GlcNAc(b1-2)Man(a1-6)[GlcNAc(b1-2)Man(a1-3)]Man(b1-4)GlcNAc(b1-4)GlcNAc
Procedure, shortened: as §1

[8] = molecular target: Neu5Ac(a2-6)Gal(b1-4)GlcNAc(b1-2)Man(a1-6)[Man(a1-3)]Man(b1-4)GlcNAc(b1-4)GlcNAc
Procedure, shortened: as §1

[9] = molecular target: Neu5Ac(a2-6)Gal(b1-4)GlcNAc(b1-2)[Neu5Ac(a2-6)Gal(b1-4)GlcNAc(b1-4)]Man(a1-3)[GlcNAc(b1-4)][Neu5Ac(a2-6)Gal(b1-4)GlcNAc(b1-2)[Neu5Ac(a2-6)Gal(b1-4)GlcNAc(b1-6)]Man(a1-6)]Man(b1-4)GlcNAc(b1-4)GlcNAc
Procedure, shortened: as §1

[10] = molecular target: Neu5Ac(a2-6)Gal(b1-4)GlcNAc(b1-2)[Neu5Ac(a2-6)Gal(b1-4)GlcNAc(b1-4)]Man(a1-3)[GlcNAc(b1-4)][Neu5Ac(a2-6)Gal(b1-4)GlcNAc(b1-4)Man(a1-6)]Man(b1-4)GlcNAc(b1-4)GlcNAc
Procedure, shortened: as §1

[11] = molecular target: Neu5Ac(a2-6)Gal(b1-4)GlcNAc(b1-2)[Neu5Ac(a2-6)Gal(b1-4)GlcNAc(b1-6)]Man(a1-6)[Neu5Ac(a2-6)Gal(b1-4)GlcNAc(b1-2)Man(a1-3)][GlcNAc(b1-4)]Man(b1-4)GlcNAc(b1-4)GlcNAc
Procedure, shortened: as §1

[12] = molecular target: Neu5Ac(a2-6)Gal(b1-4)GlcNAc(b1-3)Gal(b1-3)GlcNAc
Procedure, shortened: as §1

[13] = molecular target: Neu5Ac(a2-6)Gal(b1-4)GlcNAc(b1-3)Gal(b1-4)GlcNAc
Procedure, shortened: as §1

[14] = molecular target: Neu5Ac(a2-6)Gal(b1-4)GlcNAc(b1-3)Gal(b1-4)GlcNAc(b1-2)Man(a1-3)[Neu5Ac(a2-6)Gal(b1-4)GlcNAc(b1-3)Gal(b1-4)GlcNAc(b1-2)Man(a1-6)]GalNAc
Procedure, shortened: as §1

[15] = molecular target: Neu5Ac(a2-6)Gal(b1-4)GlcNAc(b1-3)Gal(b1-4)GlcNAc(b1-3)Gal(b1-4)GlcNAc
Procedure, shortened: as §1

[16] = molecular target: Neu5Ac(a2-6)Gal(b1-4)GlcNAc(b1-3)Gal(b1-4)GlcNAc(b1-3)Gal(b1-4)GlcNAc(b1-2)Man(a1-3)[Neu5Ac(a2-6)Gal(b1-4)GlcNAc(b1-3)Gal(b1-4)GlcNAc(b1-3)Gal(b1-4)GlcNAc(b1-2)Man(a1-6)]GalNAc
Procedure, shortened: as §1

[17] = molecular target: Neu5Ac(a2-6)Gal(b1-4)GlcNAc(b1-3)Gal(b1-4)GlcNAc(b1-3)GalNAc
Procedure, shortened: as §1

[18] = molecular target: Neu5Ac(a2-6)Gal(b1-4)GlcNAc(b1-3)Gal(b1-4)GlcNAc(b1-3)[Neu5Ac(a2-6)Gal(b1-4)GlcNAc(b1-3)Gal(b1-4)GlcNAc(b1-6)]GalNAc
Procedure, shortened: as §1

[19] = molecular target: Neu5Ac(a2-6)Gal(b1-4)GlcNAc(b1-3)Gal(b1-4)GlcNAc(b1-6)[Gal(b1-3)]GalNAc
Procedure, shortened: as §1

[20] = molecular target: Neu5Ac(a2-6)Gal(b1-4)GlcNAc(b1-3)Gal(b1-4)[Fuc(a1-3)]GlcNAc(b1-3)Gal(b1-4)[Fuc(a1-3)]GlcNAc
Procedure, shortened: as §1

[21] = molecular target: Neu5Ac(a2-6)Gal(b1-4)GlcNAc(b1-3)GalNAc
Procedure, shortened: as §1

[22] = molecular target: Neu5Ac(a2-6)Gal(b1-4)GlcNAc(b1-3)[Neu5Ac(a2-6)Gal(b1-4)GlcNAc(b1-6)]GalNAc
Procedure, shortened: as §1

[23] = molecular target: Neu5Ac(a2-6)Gal(b1-4)GlcNAc(b1-6)GalNAc
Procedure, shortened: as §1

[24] = molecular target: Neu5Ac(a2-6)Gal(b1-4)GlcNAc(b1-6)[Gal(b1-3)GlcNAc(b1-3)]Gal(b1-4)Glc
Procedure, shortened: as §1

[25] = molecular target: Neu5Ac(a2-6)Gal(b1-4)GlcNAc(b1-6)[Gal(b1-3)]GalNAc
Procedure, shortened: as §1

[26] = molecular target: Neu5Ac(a2-6)Gal(b1-4)GlcNAc6S
Procedure, shortened: as §1

Neu5Ac(a2-6)GalNAc = molecular target: Neu5Ac(a2-6)GalNAc
Procedure, shortened: as §1

[27] = molecular target: Neu5Ac(a2-6)GalNAc(b1-4)GlcNAc
Procedure, shortened: as §1

[28] = molecular target: Neu5Ac(a2-6)GalNAc(b1-4)GlcNAc6S
Procedure, shortened: as §1

[29] = molecular target: Neu5Ac(a2-6)GlcNAc(b1-4)GlcNAc
Procedure, shortened: as §1

[30] = molecular target: Neu5Ac(a2-6)GlcNAc(b1-4)GlcNAc(b1-4)GlcNAc
Procedure, shortened: as §1

B1: LngA (Escherichia coli) (protein)
chain: MLSVYNRTQKFKAEARKKIAKYHELRKQRGMSLLEVIIVLGIIGTIAAGVVILAQRAFDSRAVTDLVTNTNTVRVRMKDAYQRDGKYPDFVDPLSLTANTIKTDTSGIPAAQLVQLGKITPDEVRNNISGDFIAIGGALTSNGAQVKKGFAIELNGLSQEQCRSILGQVGNNWEYVAIGTSASGSYAMTATGVDMSVAASTTVLRSLGNNGQTTLTADKILSTCTAQVNSITLGSR
[1]
  glycan array binding signal (z-score): -0.28
[2]
  glycan array binding signal (z-score): -0.481
[3]
  glycan array binding signal (z-score): -0.455
[4]
  glycan array binding signal (z-score): -0.387
[5]
  glycan array binding signal (z-score): -0.544
[6]
  glycan array binding signal (z-score): -0.041
[7]
  glycan array binding signal (z-score): -0.467
[8]
  glycan array binding signal (z-score): -0.567
[9]
  glycan array binding signal (z-score): -0.186
[10]
  glycan array binding signal (z-score): -0.379
[11]
  glycan array binding signal (z-score): -0.516
[12]
  glycan array binding signal (z-score): -0.476
[13]
  glycan array binding signal (z-score): -0.493
[14]
  glycan array binding signal (z-score): 0.701
[15]
  glycan array binding signal (z-score): -0.502
[16]
  glycan array binding signal (z-score): 2.43
[17]
  glycan array binding signal (z-score): -0.361
[18]
  glycan array binding signal (z-score): -0.346
[19]
  glycan array binding signal (z-score): -0.111
[20]
  glycan array binding signal (z-score): -0.37
[21]
  glycan array binding signal (z-score): -0.436
[22]
  glycan array binding signal (z-score): -0.298
[23]
  glycan array binding signal (z-score): 2.77
[24]
  glycan array binding signal (z-score): -0.407
[25]
  glycan array binding signal (z-score): 0.036
[26]
  glycan array binding signal (z-score): -0.346
Neu5Ac(a2-6)GalNAc
  glycan array binding signal (z-score): -0.334
[27]
  glycan array binding signal (z-score): -0.474
[28]
  glycan array binding signal (z-score): -0.275
[29]
  glycan array binding signal (z-score): -0.526
[30]
  glycan array binding signal (z-score): 0.517
